According to PubChem BioAssay AID504832 (National Center for Advancing Translational Sciences (NCATS), 2011):
Out of some 310,000 compounds screened, about 18,000 (5.8%) were called active. Inconclusive results, whose numbers are uncertain, are shown with a selection of clear calls. Calls come from the whole dose curve; as a rule, active = well fitted inhibition curve with a large enough effect; inconclusive = small, poorly fitted or top-dose-only effect, or another doubt; inactive = no such curve, though single readings can be large or run the other way. No potency is given beside an inconclusive call; the fits are too rough.

Test: Primary qHTS for delayed death inhibitors of the malarial parasite plastid, 48 hour incubation
Settings: P. falciparum luciferase growth in erythrocytes; series mostly up to 28.7 µM; activity change, negative = inhibition: at the top concentration
In short: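 Read-out is firefly luciferase luminescence from an integrated reporter in P. falciparum, so falling signal marks reduced parasite growth. Infected erythrocytes were at 2% hematocrit and 0.1% parasitemia (final) in Albumax-supplemented RPMI 1640.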
% is set by controls: 0 for no effect and ±100 for the full control effect; potency is the fitted concentration of half-maximal effect; tags give direction and shape of the fitted curve.

Row | Structure (SMILES) | Potency | activity change, negative = inhibition
1 | CCOC(=O)C1(CC2CCCCO2)CCN(C2CCSCC2)CC1 (stereo unspecified) | inconclusive [inhibitor, single point] | 
2 | CSc1nccc(N2CCN(c3ccc(F)cc3)CC2)n1 | inconclusive [inhibitor, partial curve] | 
3 | CC(C)n1c(SCc2cc(=O)[nH]c3ccccc23)nc2c1c(=O)n(C)c(=O)n2C | inconclusive [inhibitor, full curve, poor fit] | 
4 | CCO/N=C(\C)c1c(O)c2ccccc2n(C)c1=O |  | inactive: -16.3%
5 | COc1cc(C(=O)OC2CC3CCC2(C)C3(C)C)ccc1OC(C)=O (stereo unspecified) | inconclusive [inhibitor, full curve] | 
6 | CC1CCN(S(=O)(=O)c2ccc3c4c2CC(=O)N4CC(C)S3)CC1 (stereo unspecified) | active: 8.28 µM | 
7 | C[N+](C)(C)CCCC(=O)c1ccc2c(c1)OCO2 | inconclusive [inhibitor, single point] | 
8 | COc1ccc(S(=O)(=O)N2CCCCC2)cc1NC(=O)CSc1ncnc2ccccc12 | active: 11.7 µM | 
9 | CN1CCN(C(=O)/C=C/c2ccc(Cl)cc2)CC1 |  | inactive: 51.2%
10 | CN(C)C(CNC(=S)Nc1cccc(Cl)c1)c1ccccc1 (stereo unspecified) | inconclusive [inhibitor, single point] | 
11 | Cc1ccc2cc(C(c3nnnn3C(C)(C)C)N3CCCCCC3)c(=O)[nH]c2c1 (stereo unspecified) | inconclusive [inhibitor, full curve, poor fit] | 
12 | COc1ccc(NC(=O)c2coc3ccccc23)cc1OC |  | inactive: 18.9%
13 | O=C(O)c1ccnc(C(=O)O)c1 | inconclusive [inhibitor, single point] | 
14 | COc1ccc(CN2CCN(Cc3cccc(Oc4ccccc4)c3)CC2)c(OC)c1OC |  | inactive: -29.8%
15 | COc1ccc(NC(=S)N(CCN2CCOCC2)C2CCN(C(C)=O)CC2)cc1Cl |  | inactive: -2.46%
16 | CCCCCNC(=O)c1ccc2c(=O)n(CC3CCCO3)c(=S)[nH]c2c1 (stereo unspecified) | inconclusive [inhibitor, partial curve] | 
17 | O=C(NNS(=O)(=O)c1ccccc1F)c1sccc1-n1cccc1 |  | inactive: 9.57%
18 | CSCCC1C(=O)OC2(C)CC(C)(C)NC(=S)N12 (stereo unspecified) | inconclusive [inhibitor, single point] | 
19 | O=C(c1n[nH]c2ccccc12)N1CCN(S(=O)(=O)c2ccc(Cl)cc2)CC1 | active: 2.08 µM | 
20 | S=C(Nc1ccccc1Cl)N(Cc1ccccc1)Cc1ccccn1 | inconclusive [inhibitor, single point] | 
21 | COc1ccc(-n2c(=S)[nH]c3sc4c(c3c2=O)CCN(C)C4)cc1 | inconclusive [inhibitor, partial curve, poor fit] | 
22 | COc1cccc(-c2cccc(NC(=O)C3CCN(Cc4cccc(C)n4)CC3)c2)c1 | inconclusive [inhibitor, partial curve] | 
23 | CCC1=Nc2cc(C(=O)NCCN3CCOCC3)ccc2Sc2ccc(C)cc21 | inconclusive [inhibitor, partial curve, poor fit] | 

Row | Structure (SMILES) | Potency | activity change, negative = inhibition
24 | CCOc1ccc(/C=C/C(=O)N2CCOCC2)cc1OC |  | inactive: 3.34%
25 | Cc1cc(C)n(-c2nc(NCCCN(C)C)c3c4c(sc3n2)CCCC4)n1 | active: 11.7 µM | 
26 | N#CC1=C2N=C(N)c3ccccc3N2C2=C(C(=O)CCC2)C1c1ccc(F)cc1 (stereo unspecified) | inconclusive [inhibitor, single point] | 
27 | COc1ccccc1NC1=C(Cl)C(=O)N(C2CCCCC2)C1=O | inconclusive [inhibitor, partial curve, poor fit] | 
28 | CN1/C(=C/C=C(/C#N)C(N)=O)C(C)(C)c2ccccc21 | inconclusive [inhibitor, single point] | 
29 | CC(C)(C)c1csc(SCC(=O)Nc2ccc(Cl)cn2)n1 | active: 11.7 µM | 
30 | Cc1cc(S(=O)(=O)NCC(c2ccc(F)cc2)N2CCN(C)CC2)ccc1F (stereo unspecified) | inconclusive [inhibitor, single point] | 
31 | Cc1ccnc(SCCn2c(N3CC(C)CC(C)C3)nc3c2c(=O)n(C)c(=O)n3C)n1 (stereo unspecified) |  | inactive: 15.8%
32 | COC(=O)CCNC(=O)c1nn(Cc2ccccc2)c(=O)c2ccccc12 |  | inactive: -5.18%
33 | N#Cc1ccccc1Cn1cc(C(=O)c2ccco2)c2ccccc21 | inconclusive [inhibitor, single point] | 
34 | CC(Oc1cccc(Cl)c1)C(=O)Nc1ccc(S(=O)(=O)Nc2ncccn2)cc1 (stereo unspecified) | inconclusive [inhibitor, partial curve, poor fit] | 
35 | O=C(NNC(=S)Nc1ccccc1Cl)C1CC1 |  | inactive: 11.4%
36 | Cc1ccc(N2CCN(C3=NC(=O)/C(=C\c4cn[nH]c4-c4ccccc4)S3)CC2)cc1 | active: 5.86 µM | 
37 | CCOc1ccc2c(c1)C(N(CCN1CCOCC1)C(=S)Nc1ccccc1OC)CC(C)(C)O2 (stereo unspecified) | inconclusive [inhibitor, partial curve, poor fit] | 
38 | Cc1ccc(S(=O)(=O)N2[C@@H](c3ccccc3F)C(C(=O)O)=CC[C@H]2c2ccc(Cl)c(Cl)c2)cc1 | inconclusive [inhibitor, single point] | 
39 | COc1ccc(/C=C2\SC(=N)N(c3nccs3)C2=O)cc1OC | inconclusive [inhibitor, single point] | 
40 | COc1cccc(C(C(=O)NC(C)(C)C)N(CCC(C)C)C(=O)CCC(=O)Nc2cc(C)on2)c1OC (stereo unspecified) | inconclusive [inhibitor, single point] | 
41 | CN(C)S(=O)(=O)c1cccc(C(=O)NC2CCSc3ccccc32)c1 (stereo unspecified) | inconclusive [inhibitor, single point] | 
42 | CCOc1ccc(NC(=O)CC)cc1 |  | inactive: 21.8%
43 | CCCCN(C(=O)CCC(=O)Nc1cc(C)on1)C(C(=O)NC1CCCC1)c1ccccc1OCC (stereo unspecified) | active: 14.7 µM | 
44 | Cc1ccc(S(=O)(=O)NCCCCCC(=O)Nc2nccs2)cc1 | active: 13.1 µM | 
45 | CN(C)S(=O)(=O)c1ccc(Cl)c(C(=O)OCC(=O)NC(=O)NC2CCCC2)c1 |  | inactive: 11.2%
46 | Cc1ccc(SCc2cn3cc(Cl)ccc3n2)cc1 |  | inactive: 61.8%
